Data published in PubChem BioAssay AID1240 (Sanford-Burnham Center for Chemical Genomics, 2008).
“And” between values parts separate entries of the source, which are not always exact repeats. Equal entries are not always repeated. In all, about 50,000 compounds went through this assay and about 800 (1.6%) showed an effect of 50% or more. The list shows a part of the results.

The compounds below were run against Bcl-2-like protein 10 (Homo sapiens) (UniProt Q9HD36) (assay: Phenotype converters, Bcl-B/TR3 peptide binding displacement, primary biochemical FP (AID 1240;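 also: 0% = Bcl-B with tracer peptide and DMSO and 100% = tracer peptide lacking Bcl-B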)). Details: GST-Bcl-B / FITC-TR3 peptide fluorescence polarization; stronger effect = higher value; compound at 3.75 mg/L.
Chain of UniProt Q9HD36 (Q9HD36 whole entry, looked up): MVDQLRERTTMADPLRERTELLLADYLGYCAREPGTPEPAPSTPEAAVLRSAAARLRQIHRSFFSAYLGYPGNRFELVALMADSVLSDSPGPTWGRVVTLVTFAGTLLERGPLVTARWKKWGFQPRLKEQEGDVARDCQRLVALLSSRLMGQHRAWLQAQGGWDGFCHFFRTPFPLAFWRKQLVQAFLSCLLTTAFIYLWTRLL
Compound `CCC(=O)/C=C1\Sc2ccccc2N1CC` has a displacement of 19.4%. Compound `Cc1cc(Cl)ccc1N(CC(=O)NCc1cccnc1)S(=O)(=O)c1ccccc1` has a displacement of -9.2%. For `CC1CCN(C(=O)CCCOc2ccc(Cl)cc2Cl)CC1`, the displacement was -13.5%. `COC(=O)c1ccc(N=Cc2ccc(Cl)cc2)cc1` gave a displacement of 18%. In the case of `CC1=C(C(=O)OCc2ccccc2)C(c2ccccc2Cl)C2=C(CC(C)(C)CC2=O)N1` (stereo unspecified), the displacement is reported as 3.1%. `CCC1CCC(=O)C(C2(O)C(=O)Nc3ccccc32)C1` (stereo unspecified) showed a displacement of 7.1%. `O=[N+]([O-])c1ccc(C=Nc2ccc(Cl)cc2)o1` showed a displacement of -6.6%. In the case of `CCOc1c(I)cc(/C=C2\C(=O)ON=C2c2ccccc2)cc1OC`, the displacement is reported as 3.5%. With `CCN1C(=O)N(C)C2C1N(C)C(=O)N2CC` (stereo unspecified) the displacement was -0.9%. In the case of `Cc1ccccc1C(=O)Nc1c(C(=O)NCc2ccco2)cnn1-c1ccccc1`, the displacement is reported as -7.2%. For `C=CCSc1nc2ccccc2n1C(=O)CN1C(=O)c2ccccc2C1=O`, the displacement was -16.3%. Compound `Cc1ccc(-c2c(C#N)c(SCC(=O)c3ccc(O)c(O)c3)nc3c2CCCC3)o1` has a displacement of 31.2%. Work on `COCCOC(=O)c1ccc(NC(=O)COc2ccc(Cl)cc2C)cc1` yielded a displacement of 0%. `COc1ccc(/C=C2\C(=O)NC(=O)N(c3cc(C)cc(C)c3)C2=O)cc1C` was tested, and the displacement was -15.6%. With `Cc1ccc(N/C(=N\S(=O)(=O)c2ccccc2)Nc2nc(C)cc(C)n2)cc1` the displacement was 7.1%. Compound `COc1ccc(/C=C2\SC(N3CCCC3)=NC2=O)cc1` has a displacement of 7.8%. `CC1=NN(c2cccc(F)c2)C(=O)/C1=C\c1ccc2c(c1)OCO2` showed a displacement of -5.1%. Compound `Cc1cc(=O)[nH]c(SCC(=O)Nc2ccccc2[N+](=O)[O-])n1` has a displacement of 2.2%. In the case of `COc1ccc(CCNS(=O)(=O)c2ccc(Cl)cc2)cc1`, the displacement is reported as -0.6%. In the case of `CC(C)c1ccc(NC(=O)c2cccc(I)c2)cc1`, the displacement is reported as -14.1%. For `CC(C)(C)c1cc(C(=O)N/N=C/c2ccc(F)cc2)n[nH]1`, the displacement was -1%. Work on `CCCOC(=O)c1ccc(NC(=O)CCC)cc1` yielded a displacement of -1.2%. With `O=C(COc1ccccc1[N+](=O)[O-])Nc1ccc(-c2nc3cc(Cl)ccc3o2)cc1` the displacement was 22.7%. `CCOc1cccc(N2C(=O)NC(=O)/C(=C\c3ccc(Sc4ccccc4)o3)C2=O)c1` gave a displacement of 4%. Compound `CCOC(=O)C1=C(C)NC(=S)NC1c1ccc(C(=O)O)cc1` (stereo unspecified) has a displacement of 10.4%. Work on `Cc1cc(N2C(=O)NC(=O)/C(=C\c3cccc(O)c3)C2=O)ccc1Br` yielded a displacement of -17.5%. In the case of `CCc1ccc(NC(=S)NC(=O)/C=C/c2ccccc2)cc1`, the displacement is reported as -2.4%. Work on `CCc1ccc(NC2=C(Cl)C(=O)N(c3cccc(Cl)c3)C2=O)cc1` yielded a displacement of 1.2%. In the case of `CCC(C)c1ccc(NC(=O)Cc2ccc(Cl)cc2)cc1` (stereo unspecified), the displacement is reported as 0.7%. `CC(=O)N/N=C/c1cc(C)n(-c2ccc(Cl)cc2)c1C` showed a displacement of -11.4%. For `C/C(=N\Nc1cc(-n2cc(C)cn2)ncn1)c1c(F)c(F)c(F)c(F)c1F`, the displacement was -11.6%. For `COc1ccccc1NC(=O)/C(=C\c1cccnc1)NC(=O)c1ccc(C)cc1`, the displacement was 1.1%. `CC1=NN(c2ccc(S(N)(=O)=O)cc2)C(=O)/C1=C\c1ccc(C)s1` gave a displacement of 4.7%. `S=C1NCCOCCOCCOCCN1` showed a displacement of 2.3%. For `CCCCOc1ccc(-c2nc(N)n[nH]2)cc1`, the displacement was 0.4% and -1.3%. With `OC(c1ccc(Br)cc1)C12CN3CN(CN(C3)C1)C2` (stereo unspecified) the displacement was -6.5%. For `O=C(c1cccs1)N1CCN(C2CCCC2)CC1`, the displacement was 14.5%. `O=C(Nc1ccc2oc(-c3cccnc3)nc2c1)c1ccc(OCc2ccccc2)cc1` showed a displacement of 5%. `CCC(O)C#CC1(C)CCCC(C)(C)O1` (stereo unspecified) gave a displacement of -6%. Compound `CC1=CC(C)(C)N(S(=O)(=O)c2ccc(C)cc2)c2ccc(C)cc21` has a displacement of -4.8%. Work on `COc1ccc(/C=C/C(=O)Nc2ccc(C)c(C)c2)cc1` yielded a displacement of -12.6%. Compound `O=C(Oc1ccc2oc(=O)sc2c1)c1ccccc1` has a displacement of 15.7%. `CCN(CC)c1ccc(/C=C2\C(=O)NC(=O)N(c3ccc(Cl)cc3)C2=O)o1` showed a displacement of -37.1%. With `CCOC(=O)C1=C(O)/C(=C/c2ccc([N+](=O)[O-])cc2)SC1=Nc1ccc(C)cc1` the displacement was -3.1%. Compound `CCSc1nnc(NC(=O)c2sc3ccccc3c2Cl)s1` has a displacement of 3.3%. Compound `COc1ccc(C2CC(=O)C3=C(C2)Nc2ccccc2NC3c2ccc(C(C)C)cc2)cc1` (stereo unspecified) has a displacement of -0.8%. `Cc1c(Cl)cccc1NC(=O)CSC(N)=O` showed a displacement of 7.4%. With `CCOC(=O)c1c(-c2ccc(Br)cc2)csc1NC(=O)CSc1ccccc1` the displacement was -10.1%. `COc1cc(OC)c(C=C2C(=O)NC(=O)NC2=O)cc1Br` showed a displacement of -10.9%. In the case of `Cc1ccc(OCC(=O)Nc2cc(Cl)ccc2Cl)cc1`, the displacement is reported as -5.7%. With `Cn1cccc1-c1cc(C(=O)N/N=C/c2cccc(O)c2)[nH]n1` the displacement was 39.6%. For `CC(=O)c1cccc(NC(=O)c2cc(Cl)ccc2Cl)c1`, the displacement was -3.3%. `Cc1cccc(N=Cc2ccc([N+](=O)[O-])s2)c1` gave a displacement of 1.4%. `CN(C)c1ccc(NC(=O)c2cc(Cl)ccc2Cl)cc1` showed a displacement of 5.1%. Work on `Cc1cccc(C(C)C)c1NC(=O)c1cc2ccccc2o1` yielded a displacement of 6.5%. `COCCNC(=O)CN(c1ccccc1F)S(=O)(=O)c1ccc(C)cc1` gave a displacement of -7%.
